# Test results as given in PubChem BioAssay AID1345082 (National Center for Advancing Translational Sciences (NCATS), 2018).
# The whole screen tested about 94,000 compounds, of which about 4,000 (4.3%) were called active. The inconclusive results got no clear call from the source; some entries with a clear call stand among them for comparison. The call rests on the fitted dose curve; in most records, active means well fitted inhibition curve with a large enough effect; inconclusive means small, poorly fitted or top-dose-only effect; inactive means no such curve, though single readings can be large or run the other way. Potencies of inconclusive entries are doubtful fits and often do not repeat.
# Assay: Cytotoxic Profiling in NIH 3T3 Cell Line of Diverse Libraries Using Quantitative High-Throughput Screening; further: nearly all actives have a fitted effect of over 55% in size
# Settings: NIH 3T3 viability, CellTiter-Glo ATP luminescence, 48-72 h; activity change, negative = cytotoxicity: at 96.7 µM (top of the series) unless noted; series mostly up to 96.7 µM
# Outline: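 First NIH 3T3 cells are plated at 400 cells/well; next compound is pinned in; then plates incubate 48 or 72 hr at 37 °C; finally CellTiter-Glo is added and luminescence read after 10 min.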
# On the % scale 0 is the no-effect control and ±100 the full control effect; potency means the concentration at half of the fitted maximal effect; tags describe the fitted curve by direction and shape.
SMILES,Potency,"activity change, negative = cytotoxicity",outcome
Cn1nccc1CN1CCn2c(nn(-c3ccc(C(F)(F)F)cc3)c2=O)C1,"inconclusive: 22.4 µM [inhibitor, full curve]",–,–
COc1ccc(-c2cccc(C(=O)N3CCN(C(=O)c4cccnc4)CC3)c2)nn1,"inconclusive: 50.1 µM [inhibitor, partial curve, poor fit]",–,–
COCC1CN(C)CC12CCN(C(=O)Cc1cccc(Cl)c1)CC2 (stereo not given),"inconclusive: 50.1 µM [inhibitor, partial curve, poor fit]",–,–
O=C(COc1ccccc1)N1CCC(c2n[nH]c(=O)n2Cc2ccc(F)cc2)CC1,active: 28.2 µM,–,–
COc1ccc(NC(=O)c2ccc3c(c2)N(C)C2CCCCN2C3=O)c(OC)c1 (stereo not given),"inconclusive: 56.2 µM [inhibitor, partial curve, poor fit]",–,–
Cc1noc(C)c1-c1cc(-c2cccnc2)cn2cncc12,"inconclusive: 31.6 µM [inhibitor, full curve]",–,–
COCc1ccc2c(c1)c(OC(C)(C)C(=O)NC1CCC(O)CC1)nn2Cc1cccnc1 (stereo not given),"inconclusive: 50.1 µM [inhibitor, partial curve, poor fit]",–,–
O=c1n(CCN2CCCN([S+](=O)([O-])c3cccs3)CC2)nc2n1CCCC2,–,inactive: -10.4%,–
CCOc1ccc(NC(=O)N2[C@@H]3CC[C@H]2CC(NC(=O)c2ccc(F)cc2)C3)cc1 (stereo not given in full),"inconclusive: 56.2 µM [inhibitor, partial curve, poor fit]",–,–
CN1CC(=O)N(c2ccc(Cl)cc2)Cc2c1ncnc2N1CCC(Cc2ccccc2)CC1,"inconclusive: 44.7 µM [inhibitor, partial curve, poor fit]",–,–
C[C@H]1CN(C(=O)Nc2cc(F)cc(F)c2)C[C@@H]1c1nc(-c2ccncc2)no1,"inconclusive: 50.1 µM [inhibitor, partial curve, poor fit]",–,–
Cn1cc(CN2Cc3c(cc(N4CCOCC4)nc3-c3ccc(CO)cc3)C2=O)cn1,"inconclusive: 89.1 µM [inhibitor, partial curve, poor fit]",–,–
COc1ccc(-c2cc(-c3cccc(C(N)=O)c3)cn3cncc23)cc1,active: 39.8 µM,–,–
O=C(Nc1ccc(F)cc1)c1ccc2nnc(-c3ccc(Cl)cc3)n2c1,"inconclusive: 44.7 µM [inhibitor, partial curve, poor fit]",–,–
O=C(c1ccc2nc[nH]c2c1)N1CCC(c2nc(-c3ccccc3)no2)C1 (stereo not given),"inconclusive: 44.7 µM [inhibitor, partial curve, poor fit]",–,–
CCOC(=O)C1=C(C)N=C2SC=C(CC(=O)Nc3ccc(OC)cc3)N2C1c1cccc(OC)c1 (stereo not given),"inconclusive: 50.1 µM [inhibitor, single point]",–,–
O=C(c1ccccn1)N1CCC(n2cc(-c3nc(-c4ccccc4)no3)nn2)CC1,"inconclusive: 50.1 µM [inhibitor, partial curve, poor fit]",–,–
Cn1ccnc1CN1C[C@@H]2C[C@H]1C(=O)N(Cc1cccnc1)c1ccccc1O2,–,–,inactive [at 138 µM]
CC(C)C1=NOC2(CCCN(CC3CCCC3)C2)C1 (stereo not given),–,inactive: -1.74% [at 138 µM],–
O=C(NCCc1ccccc1F)C1CCc2nnc(-c3cccc(C(F)(F)F)c3)n21 (stereo not given),"inconclusive: 39.8 µM [inhibitor, partial curve, poor fit]",–,–

SMILES,Potency,"activity change, negative = cytotoxicity",outcome
O=C1[C@@H]2C[C@@H](O)CN2C2(CN(Cc3ccccn3)C2)C(=O)N1Cc1cccc(Cl)c1,–,inactive: -14.2% [at 174 µM],–
COc1ccc(-c2ccnc3nc(-c4cccs4)nn23)cc1OC,active: 7.08 µM,–,–
COc1ccc(CN2CC3(CCN(C(=O)CCCc4ccccc4)CC3)C2=O)cc1,"inconclusive: 50.1 µM [inhibitor, partial curve, poor fit]",–,–
Cc1ccc(C)c(C(=O)N[C@@H]2CN(Cc3ccccn3)C[C@H]2CN(C)C)c1,–,inactive: -3.21%,–
CC(C)C(NC(=O)c1cn(C2CCC(N)CC2)nn1)c1nc(C2CC2)no1 (stereo not given),–,inactive: -16.9%,–
COCCN1CCOc2nc(-c3cccc(OC(F)(F)F)c3)ncc2C1=O,"inconclusive: 89.1 µM [inhibitor, partial curve]",–,–
Cc1sc2ccn(C)c(=O)c2c1C(=O)NCc1cccc(Br)c1,–,inactive: -5.13%,–
Cc1cc(N2CCC(NC(=O)c3ccc4nc[nH]c4c3)C2=O)ccc1F (stereo not given),"inconclusive: 79.4 µM [inhibitor, single point]",–,–
COc1ccc(NC(=O)CN2C(=O)NC3(CCC(C(C)(C)C)CC3)C2=O)c(OC)c1 (stereo not given),"inconclusive: 70.8 µM [inhibitor, single point]",–,–
COc1cccc(C(=O)N2CCC(N(Cc3ccccc3)C3CCOCC3)CC2)c1,"inconclusive: 44.7 µM [inhibitor, partial curve, poor fit]",–,–
CN1CCC(N2CCN([C@@H]3C[C@H]4C[C@@H](c5ccccc5)OC[C@@]4(C)C3)CC2)CC1,"inconclusive: 50.1 µM [inhibitor, partial curve, poor fit]",–,–
Cc1cccc(N2CCN(C(=O)CC3CCCCN(Cc4ccccc4)C3=O)CC2)c1 (stereo not given),"inconclusive: 44.7 µM [inhibitor, partial curve, poor fit]",–,–
COc1cccc(C(=O)N2CCN(c3nccc(Nc4ccccc4OC)n3)CC2)c1,"inconclusive: 2.82 µM [inhibitor, full curve, poor fit]",–,–
COc1ccccc1-c1cccc(CN2CCC(NC(=O)c3ccc(F)cc3)CC2)c1,"inconclusive: 44.7 µM [inhibitor, partial curve, poor fit]",–,–
O=C1CCN(C(=O)c2ccsc2)CCCC(c2nc(-c3cnccn3)no2)CCN1 (stereo not given),–,–,inactive
COc1ccc(NC(=O)C2=NO[C@@H]3CN(c4ccccc4)C[C@H]23)cn1,"inconclusive: 44.7 µM [inhibitor, full curve]",–,–
O=c1n(CCN2CCCC(N[S+](=O)([O-])c3cccc(C(F)(F)F)c3)C2)nc2n1CCCC2 (stereo not given),–,inactive: -25.9%,–
Cc1ccc2c(n1)N(C)[C@H](CO)CCN(Cc1ccc(C(F)(F)F)cc1)C2,active: 63.1 µM,–,–
Cc1cc(Cl)ccc1-c1ccc(C=O)cc1,"inconclusive: 112 µM [inhibitor, single point]",–,–
COCc1noc(CCNC(=O)c2cc(-c3ccccc3)on2)n1,"inconclusive: 89.1 µM [inhibitor, single point]",–,–
